# Assay results from PubChem BioAssay AID1508642 (National Center for Advancing Translational Sciences (NCATS), 2021).
# The whole screen tested about 43,000 compounds, of which about 200 (0.47%) were called active. This list was built around the results that the source calls inconclusive (neither active nor inactive); the mix of calls is not that of the screen. Calls follow the shape of the dose curve; as a rule, active = well fitted cell-killing curve with a large enough effect; inconclusive = small, poorly fitted or top-dose-only effect, or effect the other way; inactive = flat fitted curve, though single readings scatter. A potency beside an inconclusive call is a rough fit, not a confirmed value.
# Assay: Cell viability qHTS assay in S16 Pmp22-F2sN cells; also: nearly all actives have a fitted effect of over 65% in size
# Settings: S16 Pmp22-F2sN Schwann cells (luciferase reporters placed in the Pmp22 gene) viability, CellTiter-Glo, 24 h; activity change, negative = cytotoxicity: at 57.5 µM (top of the series)
# Source text: Assay Provider: Jim Inglese Ph.D. National Center for Advancing Translational Science, National Institutes of Health, Rockville, MD CMT is a heterogeneous group of neurological disorders that affect approximately 1 in 2,500 people. In particular, the most common form of CMT, CMT1A is genetically linked to the duplication of the PMP22 gene which leads to Schwann cell overexpression, thus manifesting itself as a typical case of dose-sensitive diseases. To identify small molecule compounds that can mediate the expression of PMP22 we developed a phenotypic assay screening strategy by utilizing genome editing techniques to construct Schwann cell lines containing novel reporter technology to monitor the transcriptional or translational regulation of PMP22. For high sensitivity we use a bioluminescent reporter system embedded in the 3' UTR of the PMP22 gene (S16(c9) Pmp22-F2sN) to identify compounds that inhibit gene expression. […] We can further discriminate the effect of all transcriptionally active molecules on PMP22 translation or stability with an assay that incorporates a short NLuc peptide (HiBiT) at the C-terminus of expressed PMP22 (S16(f8) PMP22-HiBiT) allowing alpha complementation and luminescence detection of membrane-associated PMP22 protein. These assays were screened against the NCATS Sytravon Library Collection. Miniaturization of these assays to 1536-well plate format for quantitative high throughput screening (qHTS) yielded rich data sets immediately from the qHTS assay (S16(c9) Pmp22-F2sN), when compared with data from a cell viability assay (Cell TiterGlo) to identify compounds that decreased the output signals through cellular toxicity to streamline the selection process of actives for subsequent characterization using the HiBiT assay (S16(f8) PMP22-HiBiT).
# Cell viability assay in S16 Pmp22-F2sN cells PROTOCOL TABLE (format as described by Inglese J, Shamu CE and Guy RK. 2007) SEQUENCE No. (e.g., 1, 2, 3, etc.); […] (e.g., Cells, Incubation, Reagent, etc.); VALUE and DESCRIPTION. 1. Cells. Add 500-1,000 cells in 4 uL in growth media (DMEM High Glucose, No Phenol Red media + 10% heat-inactivated FBS + 1% Pen/Strep supplemented media) per well into Greiner 1536-well white/solid bottom high base, TC-treated plates. 2. Compounds. Library compounds and controls added at 23nL per well, transferred by Pin Tool. 3. Incubation. Incubate plates at 37C, 5% CO2, 95% RH for 24 h. 4. Reagent. Add 3uL CellTiter-Glo per well of Greiner 1536-well plates. 5. Incubation. Incubate plates at room temperature for 15 min., protect from light. 6. Detector. FLuc luminescence measured using CCD-based camera (Viewlux). NOTES (numbers refer to Sequence numbers above; values are from representative experiments) 6. Luminescence Read: Clear filter; Exposure = 1 sec, Gain = High, Speed = Slow, Binning = 2X REFERENCES: 1. Inglese J, Shamu CE and Guy RK, Reporting data from high throughput screening of small molecule libraries, Nature Chemical Biology, 2007, 3(8): 438-441. doi.org/10.1038/nchembio0807-438 2. Yasgar A, Shinn P, Jadhav A, Auld DS, Michael S, Zheng W, Austin CP, Inglese J and Simeonov A, Compound Management for Quantitative High-Throughput Screening. J. Assoc. Lab. Auto., 2008, 13: 79-89. doi: 10.1016/j.jala.2007.12.004
# % is scaled to controls: 0 for no effect and ±100 for the full control effect; potency is read from the fitted curve at half-maximal effect; tags tell the direction and shape of the fitted curve.
Structure (SMILES),"activity change, negative = cytotoxicity",Potency
COc1ccccc1C(=O)Nc1ccc(S(=O)(=O)Nc2nc(C)cc(C)n2)cc1,inactive: 4.05%,–
Cc1ccc(NC(=O)CSc2nnc(NC(=O)NC3CCCCC3)s2)cc1,inactive: 6.92%,–
Cc1ccc(/C=C/c2onc(C)c2S(=O)(=O)N2CCC(C(=O)N3CCN(c4cc(C)ccc4C)CC3)CC2)cc1,–,"inconclusive: 1 µM [rising, full curve, poor fit]"
CCOc1ccccc1NC(=O)CN(c1cc(C)cc(C)c1)S(=O)(=O)c1c(C)nn(C)c1C,–,"inconclusive: 1.12 µM [cytotoxic, full curve, poor fit]"
CCOc1cc(C(=O)Nc2ccc3nc(N4CCN(C)CC4)cc(C)c3c2)cc(OCC)c1OCC,–,"inconclusive: 39.8 µM [cytotoxic, single point]"
COc1ccc(-c2noc(COc3ccc(C)cc3C)n2)cc1OC,inactive: -1.22%,–
CCOc1ccc(S(=O)(=O)Nc2ccc3c(c2)CCCN3S(=O)(=O)c2ccc(C)cc2)cc1,–,"inconclusive: 35.5 µM [cytotoxic, single point]"
CCCOc1ccc(C(=O)Nc2ccc(NC(=O)c3ccc(Br)cc3)cc2)cc1,inactive: 1.54%,–
Cn1c(C(=O)NCc2ccccc2F)cc2cc(S(=O)(=O)N3CCCCC3)ccc21,–,"inconclusive: 15.8 µM [cytotoxic, partial curve]"
CCOC(=O)c1ccc(NC(=O)c2c(NCc3ccc(OC)c(OC)c3OC)sc3c2CCC(C)C3)cc1 (stereo not given),–,"inconclusive: 39.8 µM [cytotoxic, single point]"
CCC(=O)C1=C(c2cccc([N+](=O)[O-])c2)N(C(=O)CC)n2c(nnc2C2CCCCC2)S1,–,"inconclusive: 31.6 µM [cytotoxic, single point]"
CCc1cccc(NC(=O)Cn2c(=O)n(Cc3ccccc3)c(=O)c3c(C)c(C(=O)N(C)C)sc32)c1,–,"inconclusive: 31.6 µM [cytotoxic, single point]"
CCOc1ccccc1N(C)C(=O)c1cc(S(=O)(=O)NCc2ccc(C)cc2)ccc1F,–,"inconclusive: 39.8 µM [cytotoxic, single point]"
CCOC(=O)C1CCN(c2csc3ccc(C)cc3c2=O)CC1,inactive: 3.59%,–
CCCC(=O)Nc1nc2c(s1)CC(C(C)(C)C)CC2 (stereo not given),–,"inconclusive: 7.08 µM [rising, single point]"
CCOc1ccc(-n2c(=O)c3c(C)c(C)sc3n(Cc3c(F)cccc3Cl)c2=O)cc1,–,"inconclusive: 3.98 µM [rising, partial curve, poor fit]"
Cc1ccc(-c2nc3ccccc3[nH]2)cc1NC(=O)COc1ccc(Cl)cc1Cl,–,"inconclusive: 39.8 µM [cytotoxic, single point]"
Cc1ccc(-c2noc(CSc3nnc(C)n3-c3ccc(F)cc3)n2)cc1,inactive: -9.09%,–
COc1ccc(CNC(=O)c2ccc(NC(=O)N3CCCCc4ccccc43)cc2)c(OC)c1,–,"inconclusive: 1.12 µM [rising, full curve, poor fit]"
Cc1cccc(C(=O)Nc2ccc3nc(SCC(=O)N4CCc5ccccc54)sc3c2)c1,–,"inconclusive: 15.8 µM [rising, partial curve]"

Structure (SMILES),"activity change, negative = cytotoxicity",Potency
Cc1ccc(CNS(=O)(=O)c2c(C(=O)N3CCC(C)CC3)c(C)n(C)c2C)cc1,–,"inconclusive: 0.0891 µM [cytotoxic, full curve, poor fit]"
O=C(/C=C/c1cn(CC(O)CN2CCc3ccccc32)c2ccccc12)c1ccc(Br)cc1 (stereo not given),inactive: 2.02%,–
CCOc1cc(Br)c(C2C(C(=O)OC)=C(C)NC3=C2C(=O)c2ccccc23)cc1OCC (stereo not given),–,"inconclusive: 39.8 µM [cytotoxic, single point]"
O=C(Nc1cccc(C(F)(F)F)c1)c1ccc(F)c(S(=O)(=O)N2CCc3ccccc3C2)c1,inactive: 21.9%,–
Cc1c2cnn(CC(=O)NCc3ccc(F)cc3)c(=O)c2c(C)n1Cc1ccccc1Cl,–,"inconclusive: 39.8 µM [cytotoxic, partial curve, poor fit]"
CC(=O)N1c2c(cc(Br)cc2S(=O)(=O)Nc2ccccc2C)CC1C (stereo not given),inactive: 5.71%,–
CCC1CN(C(=O)Nc2cc(OC)cc(OC)c2)c2ccccc2S1 (stereo not given),–,"inconclusive: 28.2 µM [cytotoxic, single point]"
COc1ccc(OC)c(NC(=O)c2nc(SCc3ccccc3F)ncc2Cl)c1,inactive: 0.223%,–
O=C(CC1C(=O)N(c2ccccc2)C(=O)N1CCc1cccs1)Nc1ccc(Cl)cc1 (stereo not given),–,"inconclusive: 17.8 µM [cytotoxic, partial curve, poor fit]"
COc1ccc(OC)c(NC(=O)[C@H](Cc2ccccc2)N2Cc3ccccc3C2=O)c1,inactive: -7.44%,–
COc1cc(NC(=O)CSc2ccc(-c3sc(-c4ccccc4)nc3C)nn2)cc(OC)c1,–,"inconclusive: 1 µM [rising, full curve, poor fit]"
CC(C)Oc1ccc(CNC(=O)C2CCCN(S(=O)(=O)c3ccc4c(ccn4C)c3)C2)cc1 (stereo not given),–,"inconclusive: 8.91 µM [cytotoxic, partial curve]"
O=C(NCCc1ccccc1)c1ccc(CSc2nc3ccncc3n2Cc2cccc(F)c2)cc1,–,"inconclusive: 35.5 µM [cytotoxic, single point]"
CCOc1ccccc1N1CC(c2nc3ccccc3n2CCCCOc2cc(C)ccc2C)CC1=O (stereo not given),inactive: 12%,–
CCCCOc1ccc(CN2C(=O)C(=O)c3cc(C)ccc32)cc1OC,–,"inconclusive: 39.8 µM [cytotoxic, single point]"
O=C(CN1CCN(CC(=O)Nc2ccccc2F)CC1)Nc1ccc(Cl)c(C(F)(F)F)c1,–,"inconclusive: 14.1 µM [cytotoxic, partial curve]"
CCCCn1cc(S(=O)(=O)c2ccccc2)c(=O)c2cc(F)c(N3CCC(C)CC3)cc21,–,"inconclusive: 14.1 µM [cytotoxic, partial curve, poor fit]"
Cc1c(C(=O)OCCOc2ccccc2)[nH]c2c1C(=O)CC(c1ccccc1Cl)C2 (stereo not given),–,"inconclusive: 8.91 µM [cytotoxic, partial curve]"
CCC(C(=O)NCCc1cc(OC)ccc1OC)n1nc(C)c2sc3ccccc3c2c1=O (stereo not given),–,"inconclusive: 39.8 µM [cytotoxic, single point]"
CC(=O)N1CCc2cc(S(=O)(=O)N3CCN(c4ccc(C)cc4)C(C)C3)ccc21 (stereo not given),–,"inconclusive: 28.2 µM [cytotoxic, partial curve, poor fit]"

Structure (SMILES),"activity change, negative = cytotoxicity",Potency
CCc1ccc(OCC(=O)Nc2ccc3oc(-c4ccc(OC)cc4)nc3c2)cc1,inactive: 16.7%,–
COC(=O)CC1Oc2ccc(Cl)cc2-n2cc(-c3ccc(F)cc3)nc21 (stereo not given),–,"inconclusive: 0.0282 µM [rising, single point]"
Cc1ccc(C)c(N(C)S(=O)(=O)c2ccc3[nH]cc(C(=O)NC4CCCC4)c(=O)c3c2)c1,–,"inconclusive: 39.8 µM [cytotoxic, partial curve, poor fit]"
CCOc1ccc(S(=O)(=O)NCC(c2cccs2)S(=O)(=O)c2ccc(C)cc2)cc1 (stereo not given),–,"inconclusive: 39.8 µM [cytotoxic, single point]"
COC(=O)c1c(C)sc(-c2c(-c3ccc4c(c3)OCCO4)[nH]c3c2c(=O)[nH]c(=O)n3C)c1O,–,"inconclusive: 31.6 µM [cytotoxic, single point]"
Cc1ccc(C)c(CN2C(=O)c3ccccc3S(=O)(=O)c3ccc(C(=O)NCCCN4CCCC(C)C4)cc32)c1 (stereo not given),–,"inconclusive: 39.8 µM [cytotoxic, single point]"
CCc1ccc(CNC(=O)CN2C(=O)CSc3c2c(C)nn3-c2ccccc2)cc1,–,"inconclusive: 35.5 µM [cytotoxic, single point]"
Cc1c(C(=O)Nc2ccc(C(C)C)cc2)sc2nc3n(c(=O)c12)CCC3,–,"inconclusive: 35.5 µM [cytotoxic, single point]"
COc1cc(OC)c(NC(=O)N2CC3CCCN3c3ccccc32)cc1Cl (stereo not given),–,"inconclusive: 39.8 µM [cytotoxic, single point]"
CCc1ccc(-n2nc(C)c3c(C)cc(=O)n(CC(=O)Nc4ccc(C(C)=O)cc4)c32)cc1,–,"inconclusive: 3.98 µM [rising, full curve, poor fit]"
COCCCNc1nc(NCc2cccc(Cl)c2)c2cnn(C)c2n1,–,"inconclusive: 31.6 µM [cytotoxic, single point]"
CSc1ccc(CCNS(=O)(=O)c2ccc3c(c2)C(C)(C)C(=O)N3C)cc1,–,"inconclusive: 15.8 µM [rising, partial curve, poor fit]"
O=C(Nc1ccc(F)c(Cl)c1)N1CC=C(c2c[nH]c3ccccc23)CC1,–,"inconclusive: 39.8 µM [cytotoxic, single point]"
COc1ccc2sc(N(Cc3cccnc3)C(=O)c3ccc4c(c3)OCCO4)nc2c1,–,"inconclusive: 25.1 µM [cytotoxic, partial curve, poor fit]"
CCOC(=O)c1ccc(N2C(=O)c3n[nH]c(-c4ccco4)c3C2c2ccc(C)cc2)cc1 (stereo not given),inactive: -8.5%,–
CCc1ccc(S(=O)(=O)N(C(=O)c2ccncc2)c2ccc3oc(C)c(C(=O)OC)c3c2)cc1,–,"inconclusive: 20 µM [cytotoxic, partial curve, poor fit]"
COc1ccc(CC(=O)N2CCc3cc(OC)c(OC)cc3C2COc2cc(C)cc(C)c2)cc1OC (stereo not given),–,"inconclusive: 35.5 µM [cytotoxic, single point]"
Cc1cccc(NC(=O)CSc2ccc(-c3ccccn3)nn2)c1,inactive: -18.5%,–
CCOc1ccc(CCNC(=O)CN2CCN(Cc3ccc(Cl)cc3)C2=O)cc1OCC,inactive: -4.14%,–
COc1ccc(NC(=O)CN2C(=O)COc3ccc(S(=O)(=O)N4CCCCCC4)cc32)cc1,–,"inconclusive: 5.62 µM [cytotoxic, partial curve, poor fit]"
